From a collection of fitness landscapes (doi:10.1126/science.1257360) come the findings set out here.

Some of the results follow.

B1: PhoQ; a variant is named by its letters at X, in order, P23837 (parent)
chain: MKKLLRLFFPLSLRVRFLLATAAVVLVLSLAYGMVALIGYSVSFDKTTFRLLRGESNLFYTLAKWENNKLHVELPENIDKQSPTMTLIYDENGQLLWAQRDVPWLMKMIQPDWLKSNGFHEIEADVNDTSLLLSGDHSIQQQLQEVREDDDDAEMTHSVAVNVYPATSRMPKLTIVVVDTIPVELKSSYMVWSWFIYVLSANLLLVIPLLWVAAWWSLRPIEALAKEVRELEEHNRELLNPATTRELTSLVRNLNRLLKSERERYDKYRTTLTDLTHSLKTPLXXLQXXLRSLRSEKMSVSDAEPVMLEQISRISQQIGYYLHRASMRGGTLLSRELHPVAPLLDNLTSALNKVYQRKGVNISLDISPEISFVGEQNDFVEVMGNVLDNACKYCLEFVEISARQTDEHLYIVVEDDGPGIPLSKREVIFDRGQRVDTLRPGQGVGLAVAREITEQYEGKIVAGESMLGGARMEVIFGRQHSAPKDE

Variants of B1 are the subject of this experiment. Description: enrichment ratio after two sorts for PhoP signalling (ratio (wild type AVST 3.29)); higher = more functional. The conditions noted are these: with PhoP (E. coli).
Regarding GMLM, the enrichment ratio is 1.25.
With TMNE, the enrichment ratio is at most 0.25.
For GILL, the enrichment ratio worked out at 18.2.
As for YAGE, the enrichment ratio was at most 0.25.
For the variant TFIK, the enrichment ratio was found to be 0.398.
On to DIIN, for which the enrichment ratio was at most 0.25.
With VQFQ the figure was at most 0.25; with PALY, at most 0.25.
With FALI the figure was 15.1.
The value for DAIV was at most 0.25; that for AFAL was at most 0.25; that for PSYI was at most 0.25.
With GNNW, the enrichment ratio was at most 0.25.
Consider RPTF, for which the enrichment ratio is at most 0.25.
The value for KSMM was at most 0.25; that for AKHT was at most 0.25.
The value for PEHM was at most 0.25; that for WPTC was at most 0.25; that for FQHI was at most 0.25.
For QEQV, the enrichment ratio is at most 0.25.
With WTCR the figure was at most 0.25.
As for ALMR, the enrichment ratio was at most 0.25.
The value for LIWC was at most 0.25; that for VRAG was at most 0.25.
The value for YQPK was at most 0.25; that for MNPF was at most 0.25; that for ESIW was at most 0.25.
For the variant KSDQ, the enrichment ratio is at most 0.25.
With PWYL the figure was at most 0.25; with REPK, at most 0.25.
The value for NCKL was at most 0.25; that for HNDK was at most 0.25.
The value for YGKH was at most 0.25; that for ECYC was at most 0.25; that for APHE was at most 0.25.
For the variant NPDF, the enrichment ratio is at most 0.25.
With HRDN the figure was at most 0.25.
The value for AWST was at most 0.25.
As for WDSE, the enrichment ratio was at most 0.25.
The value for KDCV was at most 0.25; that for YGET was at most 0.25; that for TCEL was 5.12.
As to RTMV, the enrichment ratio was at most 0.25.
The value for TYHQ was at most 0.25; that for EGKW was at most 0.25; that for TWQQ was at most 0.25.
With TEFC the figure was 14.4.
With IDQL the figure was at most 0.25.
Turning to NIMV, the enrichment ratio turned out to be 0.418.
GNCC: the enrichment ratio was 10.9.
On to SKYL, for which the enrichment ratio is at most 0.25.
With THMP the figure was at most 0.25; with DHRI, at most 0.25; with ERAW, at most 0.25.
With PSNT the figure was at most 0.25; with VIHC, at most 0.25; with PACK, at most 0.25.
With MYYC the figure was at most 0.25; with LRTI, at most 0.25; with PRMN, at most 0.25.
For RCTH, the enrichment ratio was at most 0.25.
The value for VKFR was at most 0.25; that for LCIP was at most 0.25.
As for LGKQ, the enrichment ratio was at most 0.25.
YDMR: the enrichment ratio is at most 0.25.
With GWPA the figure was at most 0.25.
Take DFEA: the enrichment ratio is at most 0.25.
Take TYYI: the enrichment ratio is at most 0.25.
With GPAT, the enrichment ratio is at most 0.25.
Take PHLM: the enrichment ratio is at most 0.25.
The value for RLKN was at most 0.25; that for NYMT was at most 0.25.
The value for ENNT was at most 0.25; that for DSCC was at most 0.25.
The value for EMVI was at most 0.25; that for HFQY was at most 0.25.
As to SPMH, the enrichment ratio was at most 0.25.
The value for PRCW was at most 0.25.
With HLTS the figure was at most 0.25; with AQFC, at most 0.25.
As to SNDH, the enrichment ratio was at most 0.25.
Consider KRIP, for which the enrichment ratio is at most 0.25.
Take EWGR: the enrichment ratio is at most 0.25.
On to PWAG, for which the enrichment ratio was at most 0.25.
With VGVW the figure was at most 0.25.
With QALS the figure was 1.44; with PLFW, at most 0.25; with TFFT, at most 0.25.
With HRWW the figure was at most 0.25.
On to PAAA, for which the enrichment ratio is at most 0.25.
GNYI: the enrichment ratio was at most 0.25.
With EFCT the figure was at most 0.25; with TYRM, at most 0.25; with SDSM, 1.33.
With PCRK the figure was at most 0.25; with TQYN, 10.7; with VWYW, at most 0.25.
In the case of HLTG, the enrichment ratio was determined as 1.04.
With MDSA the figure was at most 0.25; with LNHC, at most 0.25.
On to NYGA, for which the enrichment ratio is at most 0.25.
The value for CTPI was at most 0.25; that for FIPA was at most 0.25; that for EVYD was at most 0.25.
As for IHYP, the enrichment ratio was at most 0.25.
GWET: the enrichment ratio is at most 0.25.
TGPT: the enrichment ratio was at most 0.25.
Turning to MHIE, the enrichment ratio is at most 0.25.
With DRHQ, the enrichment ratio is at most 0.25.
The value for VSGY was at most 0.25.
Turning to HVWK, the enrichment ratio was at most 0.25.
The value for AEAP was at most 0.25; that for QNAF was at most 0.25.
With ASGL the figure was 8.91.
The value for QFRV was at most 0.25.
With LHIF, the enrichment ratio is at most 0.25.
Turning to GICR, the enrichment ratio amounted to 3.93.
As for WSAL, the enrichment ratio was at most 0.25.
QFNQ: the enrichment ratio is at most 0.25.
RHAV: the enrichment ratio is at most 0.25.
With SQPF the figure was at most 0.25; with KYFV, at most 0.25.
The value for GEAH was 3.
With VCNI the figure was at most 0.25; with HACY, at most 0.25.
PITA: the enrichment ratio is at most 0.25.
With DQTC the figure was at most 0.25; with TTSV, 15.8; with TLTC, 8.89.
For ARGC, the enrichment ratio was at most 0.25.
For the variant QEHF, the enrichment ratio was at most 0.25.
With FHCL the figure was at most 0.25.
In the case of LPSQ, the enrichment ratio was at most 0.25.
For the variant DKCS, the enrichment ratio was at most 0.25.
With IREW the figure was at most 0.25; with YWLE, at most 0.25.
The value for HMDF was at most 0.25; that for ERYL was at most 0.25.
Turning to MYLC, the enrichment ratio was at most 0.25.
As to KHYC, the enrichment ratio is at most 0.25.
The value for SKKM was at most 0.25; that for YWIG was at most 0.25.
The value for NPIT was at most 0.25; that for YTPP was at most 0.25; that for EFAQ was at most 0.25.
Take EGQV: the enrichment ratio was at most 0.25.
Consider ELKN, for which the enrichment ratio is at most 0.25.
In the case of HCVP, the enrichment ratio is at most 0.25.
With WEAH the figure was at most 0.25; with LGSI, 0.432.
With YIML the figure was 0.331; with QAFR, at most 0.25.
In the case of VEDG, the enrichment ratio was at most 0.25.
